From publication PMC4336329 (PLoS ONE, 2015) come the findings set out here.

Each structure is given as a SMILES string. Hit rate of the full screen: of about 310,000 compounds, about 2,200 (0.71%) showed an effect of 50% or more. Effects have a minus sign here. Some of the results follow.

Sequence of human ether-à-go-go-related gene (hERG) potassium channel (Q12809 whole entry, looked up): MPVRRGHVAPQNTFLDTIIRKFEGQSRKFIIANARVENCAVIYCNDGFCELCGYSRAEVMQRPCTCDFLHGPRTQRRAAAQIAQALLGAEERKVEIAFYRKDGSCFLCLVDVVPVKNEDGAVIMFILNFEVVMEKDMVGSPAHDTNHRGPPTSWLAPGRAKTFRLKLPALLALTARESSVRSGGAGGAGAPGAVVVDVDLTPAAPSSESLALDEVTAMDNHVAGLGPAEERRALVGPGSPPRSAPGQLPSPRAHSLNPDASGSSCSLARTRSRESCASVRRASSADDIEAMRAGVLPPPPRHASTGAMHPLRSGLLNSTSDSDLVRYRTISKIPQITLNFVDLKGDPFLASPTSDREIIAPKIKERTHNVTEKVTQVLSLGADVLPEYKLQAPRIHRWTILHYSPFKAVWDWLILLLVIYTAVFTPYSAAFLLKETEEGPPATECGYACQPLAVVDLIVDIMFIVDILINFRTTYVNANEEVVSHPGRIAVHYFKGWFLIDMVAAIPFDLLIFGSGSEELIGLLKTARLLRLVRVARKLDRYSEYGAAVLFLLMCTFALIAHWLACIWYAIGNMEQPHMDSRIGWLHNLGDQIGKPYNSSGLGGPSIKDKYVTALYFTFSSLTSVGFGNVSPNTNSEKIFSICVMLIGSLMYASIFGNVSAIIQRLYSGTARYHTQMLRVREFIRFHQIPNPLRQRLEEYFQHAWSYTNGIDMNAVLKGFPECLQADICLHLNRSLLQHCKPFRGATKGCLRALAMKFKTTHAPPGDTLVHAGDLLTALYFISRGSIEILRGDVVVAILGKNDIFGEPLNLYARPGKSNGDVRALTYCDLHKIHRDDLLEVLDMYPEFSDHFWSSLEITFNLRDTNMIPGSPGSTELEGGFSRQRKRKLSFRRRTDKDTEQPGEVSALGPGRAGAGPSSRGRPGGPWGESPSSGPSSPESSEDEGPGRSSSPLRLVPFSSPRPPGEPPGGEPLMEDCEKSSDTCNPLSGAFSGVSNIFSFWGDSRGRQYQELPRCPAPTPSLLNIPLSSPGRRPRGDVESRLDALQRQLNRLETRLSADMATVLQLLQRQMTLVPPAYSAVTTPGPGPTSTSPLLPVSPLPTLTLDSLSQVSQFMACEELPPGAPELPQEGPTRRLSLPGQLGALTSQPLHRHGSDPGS

This test has as its target human ether-à-go-go-related gene (hERG) potassium channel (human, UniProt Q12809). In words: primary screen, population patch clamp on CHO cells stably expressing hERG.
In the case of `CC12c3ccccc3C(c3ccccc31)C1C(=O)N(Cc3cccnc3)C(=O)[C@H]12` (stereo partly shown), the “hERG current change (%, negative = inhibition) at 1uM” value is recorded as 7.4%.
The result for `Cc1cccc(NC(=S)Nc2ccc3cn[nH]c3c2)c1` reads 11.4%.
On to `CNC(=S)N1C2CCC1CC(NC(=O)NC13CC4CC(CC(C4)C1)C3)C2` (stereo not shown), for which the “hERG current change (%, negative = inhibition) at 1uM” value was 13.5%.
With `O=C(Nc1nc(-c2cccnc2)cs1)c1ccc([N+](=O)[O-])cc1` the figure was 8.49%; with `CN(C)c1ccc(C(=O)OCC(=O)N2CCOCC2)cc1`, 2.34%; with `COc1ccccc1Oc1ncnc2c1cnn2-c1ccccc1`, 8.14%.
Take `O=C(N/N=C1\CCCc2ccccc21)C(O)c1ccccc1` (stereo not shown): the “hERG current change (%, negative = inhibition) at 1uM” value is on record as -4.16%.
For the molecule `Cc1ccc(CNC(=O)C(OC(=O)c2cccs2)C(C)C)cc1` (stereo not shown), the “hERG current change (%, negative = inhibition) at 1uM” value was found to be 15.7%.
With `CCOc1cc(Br)c(/C=C2/C(=O)N(C)C(=S)N2CC(=O)OC)cc1OC`, the “hERG current change (%, negative = inhibition) at 1uM” value is 13.7%.
With `CC(=O)c1c(C)[nH]c(C(=O)NCC2CCCCC2)c1C` the figure was 13.5%.
As to `COc1cccc(C2=CC(=O)C[C@H](c3ccc(OC)c(OC)c3)C2)c1`, the “hERG current change (%, negative = inhibition) at 1uM” value was 1.89%.
As for `COc1cccc(OC)c1OCC(O)CN1CCN(c2ccccc2F)CC1.Cl` (stereo not shown), the “hERG current change (%, negative = inhibition) at 1uM” value stood at 7.45%.
The result for `COc1cc2c(cc1OC)CN(C(=O)CSc1nc3[nH]ncc3c(=O)n1-c1ccccc1)CC2` reads 4.05%; that for `CN(Cc1c(C(=O)N/N=C/c2cccc(O)c2)nnn1-c1nonc1N)c1ccccc1`, 12.6%.
With `COc1ccc2c(c1)c1ncn(Cc3ccccn3)c(=O)c1n2C` the figure was 14.2%; with `Cc1ccc(NC(=O)/C=C/c2cccc(C(F)(F)F)c2)cc1`, 15.8%.
With `CN1/C(=C\C(=O)C[n+]2ccc(C(=O)c3ccccc3)cc2)C(C)(C)c2ccccc21.[Cl-]` the figure was 8.74%; with `CCOc1ccccc1NC(=O)CSc1nc(=O)n(CCCN2CCOCC2)c2c1CCC2`, 5.41%.
With `Cc1nc(N2CCN(c3ccccn3)CC2)c2c(C)c(C(=O)Nc3ccc(Br)cc3C)sc2n1`, the “hERG current change (%, negative = inhibition) at 1uM” value amounted to 24.1%.
On to `CCn1c(N2CCN(C(=O)C34CC5CC(CC(C5)C3)C4)CC2)nc2ccccc21`, for which the “hERG current change (%, negative = inhibition) at 1uM” value stood at 11.5%.
As to `Cc1cccc2cc(CN(CC3CCCO3)C(=O)NC3CCCCC3)c(=O)[nH]c12` (stereo not shown), the “hERG current change (%, negative = inhibition) at 1uM” value amounted to 4.52%.
Take `CC(C)CCCC(C)NC(=O)c1cc(S(=O)(=O)N2CCCCC2)ccc1N1CCOCC1` (stereo not shown): the “hERG current change (%, negative = inhibition) at 1uM” value was 10.7%.
The result for `COc1ccccc1C(=O)NCCSCc1ccccc1Cl` reads 8.35%; that for `CCn1c(=O)n(CC)c2cc(N3CCCC3)c(NC(=O)c3ccc(C)cc3)cc21`, 15.1%.
With `Cc1ccc(C)c(N2N=C(C(=O)N(CC(C)C)c3c(N)n(Cc4ccccc4)c(=O)[nH]c3=O)CCC2=O)c1` the figure was 13.4%; with `COC(=O)CSc1nc2cc(C)ccc2cc1C#N`, 21.4%; with `Cc1ccc(C)c(NC(=O)CCC(=O)N/N=C/c2cc([N+](=O)[O-])ccc2O)c1`, 5.84%.
Turning to `O=C(O)c1ccc(-n2cccn2)nc1`, the “hERG current change (%, negative = inhibition) at 1uM” value amounted to 8.72%.
The result for `CCN1C(=O)/C(=C/C=C2/Sc3ccccc3N2CCO)SC1=S` reads 5.47%; that for `CCc1ccc(-c2nn(Cc3ccccc3)cc2/C=C/C(=O)O)cc1`, 9.47%.
With `CCN1CCN(C(=O)c2ccccc2NC(=O)c2ccc(Cl)cc2)CC1` the figure was -8.95%.
The result for `COc1cccc(NC(=O)COc2c(F)c(F)c(C(F)(F)F)c(F)c2F)c1` reads 2.07%.
Consider `Cc1ccc(NC(=O)N2CCCc3ccccc32)cc1C`, for which the “hERG current change (%, negative = inhibition) at 1uM” value came to 6.47%.
The result for `Cc1cc(C)cc(-n2c(C)cc(/C=N/NC(=O)c3cccc([N+](=O)[O-])c3C)c2C)c1` reads 16.9%; that for `C/C(=N\Nc1ccc(C#N)cc1[N+](=O)[O-])c1ccc(C)o1`, -2.38%.
With `COc1ccc(-n2c(N)c(C(=O)NCc3ccco3)c3nc4ccccc4nc32)c(OC)c1`, the “hERG current change (%, negative = inhibition) at 1uM” value came out at 9.95%.
For the molecule `COc1cccc(C(=O)Nc2sc3c(c2C(=O)O)CCCC3)c1`, the “hERG current change (%, negative = inhibition) at 1uM” value worked out at 17.9%.
Take `Cc1ccc2cc3cc(C(=O)NCCN4CCOCC4)oc3nc2c1`: the “hERG current change (%, negative = inhibition) at 1uM” value was -1.2%.
The result for `CC(Sc1ncnc2sc(-c3ccccc3)cc12)C(N)=O` (stereo not shown) reads 15.2%; that for `CN(C)S(=O)(=O)c1cccc(NC(=O)c2ccncc2)c1`, 8.07%; that for `CCOC(=O)c1c(CSc2cccs2)n(C)c2cc(Br)c(O)c(CN(C)C)c12.Cl`, -13.8%.
On to `COc1ccc(OCCn2c(N)nc3ccccc32)cc1`, for which the “hERG current change (%, negative = inhibition) at 1uM” value is on record as -30%.
The result for `O=C(CSc1nnc(NC(=O)C2CC(=O)N(c3ccc(F)cc3)C2)s1)NCc1ccco1` (stereo not shown) reads 11.9%.
